The supplement of paper PMC8728848
The other results are listed elsewhere or left out.

Assays:
Test in all cases: glycan array binding signal (z-score within array); higher = stronger binding
Settings in all cases: glycan notation: IUPAC condensed, linker removed; mutation: R186S
[1] = biological target: Neu5Ac(a2-6)Gal(b1-4)GlcNAc(b1-2)Man(a1-3)Man(b1-4)GlcNAc(b1-4)GlcNAc
Outline: (§1)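 Arrays were curated from the Consortium for Functional Glycomics database, 3228 in total, and kept only where the protein sequence was available. Binding is expressed as a within-array Z-score. This score was averaged across arrays of the same protein sequence at different concentrations or buffers and across linkers, and negative values can be read as non-binding.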

[2] = biological target: Neu5Ac(a2-6)Gal(b1-4)GlcNAc(b1-2)Man(a1-3)[Gal(b1-4)GlcNAc(b1-2)Man(a1-6)]Man(b1-4)GlcNAc(b1-4)GlcNAc
Outline: as §1

[3] = biological target: Neu5Ac(a2-6)Gal(b1-4)GlcNAc(b1-2)Man(a1-3)[GlcNAc(b1-2)Man(a1-6)]Man(b1-4)GlcNAc(b1-4)GlcNAc
Outline: as §1

[4] = biological target: Neu5Ac(a2-6)Gal(b1-4)GlcNAc(b1-2)Man(a1-3)[GlcNAc(b1-2)Man(b1-4)GlcNAc(b1-2)Man(a1-6)]Man(b1-4)GlcNAc(b1-4)GlcNAc
Outline: as §1

[5] = biological target: Neu5Ac(a2-6)Gal(b1-4)GlcNAc(b1-2)Man(a1-3)[Man(a1-6)]Man(b1-4)GlcNAc(b1-4)GlcNAc
Outline: as §1

[6] = biological target: Neu5Ac(a2-6)Gal(b1-4)GlcNAc(b1-2)Man(a1-3)[Neu5Ac(a2-6)Gal(b1-4)GlcNAc(b1-2)Man(a1-6)]Man(b1-4)GlcNAc(b1-4)GlcNAc
Outline: as §1

[7] = biological target: Neu5Ac(a2-6)Gal(b1-4)GlcNAc(b1-2)Man(a1-6)Man(b1-4)GlcNAc(b1-4)GlcNAc
Outline: as §1

[8] = biological target: Neu5Ac(a2-6)Gal(b1-4)GlcNAc(b1-2)Man(a1-6)[Gal(b1-4)GlcNAc(b1-2)Man(a1-3)]Man(b1-4)GlcNAc(b1-4)GlcNAc
Outline: as §1

[9] = biological target: Neu5Ac(a2-6)Gal(b1-4)GlcNAc(b1-2)Man(a1-6)[GlcNAc(b1-2)Man(a1-3)]Man(b1-4)GlcNAc(b1-4)GlcNAc
Outline: as §1

[10] = biological target: Neu5Ac(a2-6)Gal(b1-4)GlcNAc(b1-2)Man(a1-6)[Man(a1-3)]Man(b1-4)GlcNAc(b1-4)GlcNAc
Outline: as §1

[11] = biological target: Neu5Ac(a2-6)Gal(b1-4)GlcNAc(b1-3)Gal(b1-3)GlcNAc
Outline: as §1

[12] = biological target: Neu5Ac(a2-6)Gal(b1-4)GlcNAc(b1-3)Gal(b1-4)GlcNAc
Outline: as §1

[13] = biological target: Neu5Ac(a2-6)Gal(b1-4)GlcNAc(b1-3)Gal(b1-4)GlcNAc(b1-3)Gal(b1-4)GlcNAc
Outline: as §1

[14] = biological target: Neu5Ac(a2-6)Gal(b1-4)GlcNAc(b1-3)Gal(b1-4)[Fuc(a1-3)]GlcNAc(b1-3)Gal(b1-4)[Fuc(a1-3)]GlcNAc
Outline: as §1

[15] = biological target: Neu5Ac(a2-6)Gal(b1-4)GlcNAc(b1-3)GalNAc
Outline: as §1

[16] = biological target: Neu5Ac(a2-6)Gal(b1-4)GlcNAc6S
Outline: as §1

[17] = biological target: Neu5Ac(a2-6)GalNAc
Outline: as §1

[18] = biological target: Neu5Ac(a2-6)GalNAc(b1-4)GlcNAc
Outline: as §1

[19] = biological target: Neu5Ac(a2-6)GlcNAc(b1-4)GlcNAc
Outline: as §1

[20] = biological target: Neu5Ac(a2-6)GlcNAc(b1-4)GlcNAc(b1-4)GlcNAc
Outline: as §1

[21] = biological target: Neu5Ac(a2-8)Neu5Ac
Outline: as §1

[22] = biological target: Neu5Ac(a2-8)Neu5Ac(a2-3)Gal(b1-4)Glc
Outline: as §1

[23] = biological target: Neu5Ac(a2-8)Neu5Ac(a2-3)[GalNAc(b1-4)]Gal(b1-4)Glc
Outline: as §1

[24] = biological target: Neu5Ac(a2-8)Neu5Ac(a2-8)Neu5Ac
Outline: as §1

[25] = biological target: Neu5Ac(a2-8)Neu5Ac(a2-8)Neu5Ac(a2-3)Gal(b1-4)Glc
Outline: as §1

[26] = biological target: Neu5Ac(a2-8)Neu5Ac(a2-8)Neu5Ac(a2-3)[GalNAc(b1-4)]Gal(b1-4)Glc
Outline: as §1

[27] = biological target: Neu5Ac(a2-8)Neu5Ac(a2-8)Neu5Ac(a2-8)Neu5Ac(a2-3)[GalNAc(b1-4)]Gal(b1-4)Glc
Outline: as §1

[28] = biological target: Neu5Ac(b2-6)Gal(b1-4)GlcNAc
Outline: as §1

[29] = biological target: Neu5Ac(b2-6)GalNAc
Outline: as §1

[30] = biological target: Neu5Ac9Ac(a2-3)Gal(b1-3)GlcNAc
Outline: as §1

[31] = biological target: Neu5Ac9Ac(a2-3)Gal(b1-4)GlcNAc
Outline: as §1

[32] = biological target: Neu5Ac9Ac(a2-6)Gal(b1-4)GlcNAc
Outline: as §1

[33] = biological target: Neu5Gc(a2-3)Gal(b1-3)GlcNAc
Outline: as §1

[34] = biological target: Neu5Gc(a2-3)Gal(b1-3)[Fuc(a1-4)]GlcNAc
Outline: as §1

[35] = biological target: Neu5Gc(a2-3)Gal(b1-4)Glc
Outline: as §1

[36] = biological target: Neu5Gc(a2-3)Gal(b1-4)GlcNAc
Outline: as §1

[37] = biological target: Neu5Gc(a2-3)Gal(b1-4)[Fuc(a1-3)]GlcNAc
Outline: as §1

[38] = biological target: Neu5Gc(a2-6)Gal(b1-4)GlcNAc
Outline: as §1

[39] = biological target: Neu5Gc(a2-6)GalNAc
Outline: as §1

[40] = biological target: Neu5Gc(b2-6)Gal(b1-4)GlcNAc
Outline: as §1

B1: Gal 3 (Homo sapiens), P17931 (protein)
chain: MADNFSLHDALSGSGNPNPQGWPGAWGNQPAGAGGYPGASYPGAYPGQAPPGAYPGQAPPGAYHGAPGAYPGAPAPGVYPGPPSGPGAYPSSGQPSAPGAYPATGPYGAPAGPLIVPYNLPLPGGVVPRMLITILGTVKPNANILDFQRGNDVAFHFNPRFNENNRRVIVCNTKLDNNWGREESQSVFPFESGKPFKIQVLVEPDHFKVAVNDAHLLQYNHRVKKLNEISKLGISGDIDLTSASYTMI
- glycan array binding signal (z-score) [1]: -0.007
- glycan array binding signal (z-score) [2]: 0.028
- glycan array binding signal (z-score) [3]: -0.043
- glycan array binding signal (z-score) [4]: -0.022
- glycan array binding signal (z-score) [5]: -0.043
- glycan array binding signal (z-score) [6]: -0.05
- glycan array binding signal (z-score) [7]: -0.056
- glycan array binding signal (z-score) [8]: -0.053
- glycan array binding signal (z-score) [9]: -0.053
- glycan array binding signal (z-score) [10]: -0.024
- glycan array binding signal (z-score) [11]: -0.061
- glycan array binding signal (z-score) [12]: -0.042
- glycan array binding signal (z-score) [13]: -0.001
- glycan array binding signal (z-score) [14]: -0.061
- glycan array binding signal (z-score) [15]: -0.035
- glycan array binding signal (z-score) [16]: -0.084
- glycan array binding signal (z-score) [17]: -0.058
- glycan array binding signal (z-score) [18]: -0.073
- glycan array binding signal (z-score) [19]: -0.041
- glycan array binding signal (z-score) [20]: -0.029
- glycan array binding signal (z-score) [21]: -0.069
- glycan array binding signal (z-score) [22]: -0.054
- glycan array binding signal (z-score) [23]: -0.048
- glycan array binding signal (z-score) [24]: -0.045
- glycan array binding signal (z-score) [25]: -0.019
- glycan array binding signal (z-score) [26]: -0.078
- glycan array binding signal (z-score) [27]: -0.053
- glycan array binding signal (z-score) [28]: -0.083
- glycan array binding signal (z-score) [29]: -0.023
- glycan array binding signal (z-score) [30]: -0.069
- glycan array binding signal (z-score) [31]: -0.035
- glycan array binding signal (z-score) [32]: -0.058
- glycan array binding signal (z-score) [33]: -0.053
- glycan array binding signal (z-score) [34]: -0.066
- glycan array binding signal (z-score) [35]: -0.08
- glycan array binding signal (z-score) [36]: -0.048
- glycan array binding signal (z-score) [37]: 0.006
- glycan array binding signal (z-score) [38]: -0.063
- glycan array binding signal (z-score) [39]: -0.086
- glycan array binding signal (z-score) [40]: 0.003
